Holding throughout (test): co-IP; HEK293T cells overexpressing a Flag-tagged and a GFP-tagged protein; CHAPS lysis buffer (0.01 M Chaps, 50 mM Tris-HCl pH 7.8, 150 mM NaCl); agarose-conjugated anti-Flag M2 beads overnight at 4°C, 6 washes; Western blot
(In general: In western blotting, separated proteins are transferred to a membrane and probed.)

The chains behind the UniProt entries cited, without tags or fusion partners.
UniProt P52945: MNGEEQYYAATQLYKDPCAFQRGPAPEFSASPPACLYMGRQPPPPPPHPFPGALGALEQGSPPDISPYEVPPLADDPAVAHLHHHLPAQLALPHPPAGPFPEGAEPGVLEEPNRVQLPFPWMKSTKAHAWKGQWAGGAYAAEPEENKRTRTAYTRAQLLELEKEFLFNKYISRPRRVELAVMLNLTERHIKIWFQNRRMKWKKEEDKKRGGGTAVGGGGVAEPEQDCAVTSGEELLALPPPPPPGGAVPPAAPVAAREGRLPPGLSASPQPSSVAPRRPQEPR
UniProt Q96CX2: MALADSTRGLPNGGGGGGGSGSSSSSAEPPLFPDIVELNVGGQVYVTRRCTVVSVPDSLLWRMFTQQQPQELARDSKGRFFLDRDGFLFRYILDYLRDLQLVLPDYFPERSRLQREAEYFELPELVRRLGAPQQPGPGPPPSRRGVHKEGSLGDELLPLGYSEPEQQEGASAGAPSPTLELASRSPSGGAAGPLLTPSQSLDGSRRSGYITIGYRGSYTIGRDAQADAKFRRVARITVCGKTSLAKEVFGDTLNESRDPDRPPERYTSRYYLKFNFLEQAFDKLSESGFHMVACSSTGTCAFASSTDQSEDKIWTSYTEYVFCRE
UniProt P43694: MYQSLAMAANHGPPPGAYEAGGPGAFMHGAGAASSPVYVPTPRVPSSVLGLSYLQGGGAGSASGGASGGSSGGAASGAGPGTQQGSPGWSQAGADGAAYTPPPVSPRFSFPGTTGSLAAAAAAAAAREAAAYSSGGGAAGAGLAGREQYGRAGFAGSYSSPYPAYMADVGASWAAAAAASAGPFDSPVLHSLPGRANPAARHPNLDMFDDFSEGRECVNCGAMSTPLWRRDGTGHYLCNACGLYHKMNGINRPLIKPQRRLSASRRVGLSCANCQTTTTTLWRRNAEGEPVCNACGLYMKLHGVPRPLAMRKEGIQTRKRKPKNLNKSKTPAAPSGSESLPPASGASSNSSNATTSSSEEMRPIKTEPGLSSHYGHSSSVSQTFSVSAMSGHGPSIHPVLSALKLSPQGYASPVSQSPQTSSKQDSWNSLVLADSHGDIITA

In one experiment the target is T1, PPDPF-Flag (human) (UniProt Q9H3Y8).
T1 sequence: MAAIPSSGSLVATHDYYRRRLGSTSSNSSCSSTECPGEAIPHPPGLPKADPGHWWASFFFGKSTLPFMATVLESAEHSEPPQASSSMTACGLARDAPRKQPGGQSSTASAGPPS

A further experiment addresses PDX1-Flag (UniProt P52945).
In another experiment the target is T2, NKX6-1-Flag (UniProt P78426).
T2 sequence: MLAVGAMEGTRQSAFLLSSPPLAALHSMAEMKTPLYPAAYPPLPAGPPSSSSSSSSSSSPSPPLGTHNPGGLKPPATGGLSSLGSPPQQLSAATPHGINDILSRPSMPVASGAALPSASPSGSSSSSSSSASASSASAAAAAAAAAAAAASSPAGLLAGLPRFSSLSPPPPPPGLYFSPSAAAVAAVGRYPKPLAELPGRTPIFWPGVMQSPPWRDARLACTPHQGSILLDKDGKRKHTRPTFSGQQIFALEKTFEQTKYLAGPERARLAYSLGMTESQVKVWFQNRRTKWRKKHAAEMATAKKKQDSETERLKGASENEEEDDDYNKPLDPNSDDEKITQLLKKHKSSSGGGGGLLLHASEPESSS

The target of the next experiment is T3, FOXA1-Flag (UniProt P55317).
T3 sequence: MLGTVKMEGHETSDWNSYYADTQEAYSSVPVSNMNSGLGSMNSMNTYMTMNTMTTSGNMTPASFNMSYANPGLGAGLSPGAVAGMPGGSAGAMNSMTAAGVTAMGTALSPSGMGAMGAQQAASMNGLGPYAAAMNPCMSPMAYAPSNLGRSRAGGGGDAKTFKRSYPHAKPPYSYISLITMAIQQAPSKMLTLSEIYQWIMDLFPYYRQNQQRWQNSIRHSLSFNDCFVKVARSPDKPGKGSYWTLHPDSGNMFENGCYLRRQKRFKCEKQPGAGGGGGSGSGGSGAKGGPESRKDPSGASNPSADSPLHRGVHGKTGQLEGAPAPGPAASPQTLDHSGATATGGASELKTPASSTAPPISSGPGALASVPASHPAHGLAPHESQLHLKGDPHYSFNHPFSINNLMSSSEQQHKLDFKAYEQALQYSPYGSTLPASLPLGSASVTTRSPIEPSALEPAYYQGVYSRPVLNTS

The target in the next experiment is KCTD12-Flag (human) (UniProt Q96CX2).
For another experiment, the target named is T4, MAGED1-Flag (human) (UniProt Q9Y5V3).
T4 sequence: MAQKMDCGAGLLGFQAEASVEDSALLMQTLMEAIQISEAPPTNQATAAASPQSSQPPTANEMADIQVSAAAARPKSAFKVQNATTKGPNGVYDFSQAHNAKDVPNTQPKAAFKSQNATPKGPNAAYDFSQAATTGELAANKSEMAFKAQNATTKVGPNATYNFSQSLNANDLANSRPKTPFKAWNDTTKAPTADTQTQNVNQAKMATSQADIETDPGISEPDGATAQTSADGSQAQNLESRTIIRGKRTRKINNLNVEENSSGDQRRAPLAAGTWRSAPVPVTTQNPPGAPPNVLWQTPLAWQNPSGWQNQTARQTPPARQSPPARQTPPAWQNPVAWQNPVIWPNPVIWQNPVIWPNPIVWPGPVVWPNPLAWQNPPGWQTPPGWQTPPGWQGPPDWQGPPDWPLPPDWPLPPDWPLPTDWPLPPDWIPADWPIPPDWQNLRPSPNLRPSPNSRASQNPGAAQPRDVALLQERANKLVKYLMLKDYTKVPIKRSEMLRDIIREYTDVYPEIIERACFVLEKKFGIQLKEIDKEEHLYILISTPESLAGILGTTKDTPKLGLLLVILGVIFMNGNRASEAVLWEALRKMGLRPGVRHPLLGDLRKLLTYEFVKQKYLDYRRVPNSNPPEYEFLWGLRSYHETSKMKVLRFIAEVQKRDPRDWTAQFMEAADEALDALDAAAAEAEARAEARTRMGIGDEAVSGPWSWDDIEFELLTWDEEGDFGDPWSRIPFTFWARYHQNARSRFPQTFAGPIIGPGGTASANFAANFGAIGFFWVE

The next experiment deals with T5, FOXA2-Flag (UniProt Q9Y261).
T5 sequence: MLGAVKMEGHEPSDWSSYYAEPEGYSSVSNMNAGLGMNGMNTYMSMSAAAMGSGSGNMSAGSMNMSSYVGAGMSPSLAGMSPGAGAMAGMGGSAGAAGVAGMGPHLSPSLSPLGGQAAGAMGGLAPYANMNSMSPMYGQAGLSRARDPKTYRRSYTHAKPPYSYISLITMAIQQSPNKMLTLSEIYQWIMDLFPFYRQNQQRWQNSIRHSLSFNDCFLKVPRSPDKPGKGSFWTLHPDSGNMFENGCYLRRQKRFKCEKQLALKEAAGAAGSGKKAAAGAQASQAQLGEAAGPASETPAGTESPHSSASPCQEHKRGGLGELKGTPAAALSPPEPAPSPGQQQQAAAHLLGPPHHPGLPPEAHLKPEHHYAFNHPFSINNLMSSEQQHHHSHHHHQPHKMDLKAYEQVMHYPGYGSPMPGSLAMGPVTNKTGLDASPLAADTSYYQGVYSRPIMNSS

Results are given in words; binding and its absence hold for the method and conditions named. Binding seen in cells or lysates may run through a third protein. Some binding calls cover weakened binding; strength is not graded here. Sequences can lack the tags named with a protein.

With GATA4-GFP (from UniProt P43694 1-442), the binding result with PPDPF-Flag (human) is recorded as “no binding”.
As for KCTD12-GFP (from UniProt Q96CX2 1-325), the binding result with PPDPF-Flag (human) was “binds”.

B1: MAGED1-GFP (protein, UniProt Q9Y5V3 1-778)
chain: MAQKMDCGAGLLGFQAEASVEDSALLMQTLMEAIQISEAPPTNQATAAASPQSSQPPTANEMADIQVSAAAARPKSAFKVQNATTKGPNGVYDFSQAHNAKDVPNTQPKAAFKSQNATPKGPNAAYDFSQAATTGELAANKSEMAFKAQNATTKVGPNATYNFSQSLNANDLANSRPKTPFKAWNDTTKAPTADTQTQNVNQAKMATSQADIETDPGISEPDGATAQTSADGSQAQNLESRTIIRGKRTRKINNLNVEENSSGDQRRAPLAAGTWRSAPVPVTTQNPPGAPPNVLWQTPLAWQNPSGWQNQTARQTPPARQSPPARQTPPAWQNPVAWQNPVIWPNPVIWQNPVIWPNPIVWPGPVVWPNPLAWQNPPGWQTPPGWQTPPGWQGPPDWQGPPDWPLPPDWPLPPDWPLPTDWPLPPDWIPADWPIPPDWQNLRPSPNLRPSPNSRASQNPGAAQPRDVALLQERANKLVKYLMLKDYTKVPIKRSEMLRDIIREYTDVYPEIIERACFVLEKKFGIQLKEIDKEEHLYILISTPESLAGILGTTKDTPKLGLLLVILGVIFMNGNRASEAVLWEALRKMGLRPGVRHPLLGDLRKLLTYEFVKQKYLDYRRVPNSNPPEYEFLWGLRSYHETSKMKVLRFIAEVQKRDPRDWTAQFMEAADEALDALDAAAAEAEARAEARTRMGIGDEAVSGPWSWDDIEFELLTWDEEGDFGDPWSRIPFTFWARYHQNARSRFPQTFAGPIIGPGGTASANFAANFGAIGFFWVE
As for B1, the binding result with PPDPF-Flag (human) is “binds”.

B2: PPDPF-GFP (protein, UniProt Q9H3Y8 1-114)
chain: MAAIPSSGSLVATHDYYRRRLGSTSSNSSCSSTECPGEAIPHPPGLPKADPGHWWASFFFGKSTLPFMATVLESAEHSEPPQASSSMTACGLARDAPRKQPGGQSSTASAGPPS
Turning to B2, the binding result was “no binding” in the experiment with PDX1-Flag; “no binding” with NKX6-1-Flag; “no binding” with FOXA1-Flag; “binds” with KCTD12-Flag (human); “binds” with MAGED1-Flag (human); “no binding” with FOXA2-Flag.

The record behind these values is publication PMC12037078.
